As a reminder, the IC50 is the concentration that inhibits the measured activity by half.

We go through ten cell lines from the supplement of paper PMC4967469.

Holding throughout (experiment): Viability of human cancer cell lines after 72 h of drug (GDSC screen)
Compound in assay [1]: CC(=O)Nc1nc(C)c(-c2ccc(Cl)c(S(=O)(=O)NCCO)c2)s1 [PIK-93]
The settings on record: top dose 20 µM. The method, then:
(§1)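 Human cancer cell lines in 384-well plates, medium with 10% serum, drug for 72 h over a 256-fold dose range (nine 2-fold or five 4-fold steps up to the top dose). Adherent lines were fixed and stained with the nucleic acid dye Syto60, suspension lines read with resazurin; signal relative to control wells, capped at 0 and 100%. One two-parameter sigmoid per drug and line, fitted in a mixed model over all curves with the slope shared within a line.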

Compound in assay [2]: CC1(C)CCC(c2ccc(Cl)cc2)=C(CN2CCN(c3ccc(C(=O)NS(=O)(=O)c4ccc(N[C@H](CCN5CCOCC5)CSc5ccccc5)c(S(=O)(=O)C(F)(F)F)c4)cc3)CC2)C1 [ABT-263]
The settings on record: top dose 2 µM; top dose inferred. The method, then: as §1

Compound in assay [3]: COc1cc2ncn(-c3cc(OCc4ccccc4C(F)(F)F)c(C(N)=O)s3)c2cc1OC [GW843682X]
The settings on record: top dose 0.256 µM. The method, then:
as §1

Compound in assay [4]: O=C(/C=C/c1ccccc1)NC(NC(=S)Nc1cccc2cccnc12)C(Cl)(Cl)Cl [Salubrinal]
The settings on record: top dose 16 µM; top dose inferred. The protocol:
as §1

Compound in assay [5]: Cn1cc(/C=C2\C(=O)Nc3cccnc32)c2ccccc21 [GW 441756]
The settings on record: top dose 2 µM; top dose inferred. The protocol:
as §1

Compound in assay [6]: COc1cc(/C=C/C(=O)N2CCC=CC2=O)cc(OC)c1OC [piperlongumine]
The settings on record: top dose 10 µM. The method, then:
as §1

Lines with a small IC50 respond at low doses; a fit beyond the top or the lowest dose is shown as a bound at that dose. For AUC the same curve is integrated over the 256-fold range of doses and scaled to a fraction; values near 1 show little effect. For part of these data: An inferred top dose was calculated from the reported fits. Where only a bound is given, the exact number is not on record here.

As to NEC8 (testis, adherent), the AUC turned out to be 0.836 in assay [1]; 0.92 in assay [2]; 0.689 in assay [3]; 0.797 in assay [4]; 0.79 in assay [5]; 0.789 in assay [6]. Moreover, the IC50 in assay [1] was 10.5 µM; in assay [2] it was above 2 µM; in assay [3], 0.0492 µM; in assay [4], 6.29 µM; in assay [5], 0.745 µM; in assay [6] it was 3.71 µM.

With “KCL-22 (chronic myeloid leukaemia, suspension)”, the AUC in assay [1] worked out at 0.757; in assay [2], 0.921; in assay [3] it was 0.544; in assay [4] it was 0.913; in assay [5], 0.991; in assay [6] it was 0.818. Besides, the IC50 in assay [1] is 5.91 µM; in assay [2], above 2 µM; in assay [3], 0.0207 µM; in assay [4], above 16 µM; in assay [5], above 2 µM; in assay [6], 4.5 µM.

In the case of HA7-RCC (kidney, adherent), the AUC in assay [1] stood at 0.784; in assay [2], 0.766; in assay [3], 0.658; in assay [4], 0.837; in assay [5] it was 0.856; in assay [6] it was 0.778. Also, the IC50 in assay [1] came out at 9.45 µM; in assay [2] it was 0.81 µM; in assay [3] it was 0.0461 µM; in assay [4], 12.3 µM; in assay [5], 1.89 µM; in assay [6], 4.48 µM.

As for EW-11 (Ewing sarcoma, adherent), the AUC in assay [1] stood at 0.617; in assay [2], 0.832; in assay [3], 0.981; in assay [4], 0.951; in assay [5], 0.966; in assay [6], 0.808. Also, the IC50 in assay [1] is 2.88 µM; in assay [2], 1.84 µM; in assay [3], above 0.256 µM; in assay [4], above 16 µM; in assay [5], above 2 µM; in assay [6] it was 7.11 µM.

Consider “NCI-H2141 (small cell lung carcinoma, suspension)”, for which the AUC came out at 0.969 in assay [1]; 0.772 in assay [2]; 0.783 in assay [3]; 0.953 in assay [4]; 0.989 in assay [5]; 0.824 in assay [6]. For the same cell line, the 50% inhibitory concentration (IC50) in assay [1] is above 20 µM; in assay [2], 0.752 µM; in assay [3] it was 0.105 µM; in assay [4] it was above 16 µM; in assay [5] it was above 2 µM; in assay [6], 5.73 µM.

In the case of EKVX (lung adenocarcinoma, adherent), the AUC in assay [1] is 0.906; in assay [2] it was 0.922; in assay [3] it was 0.948; in assay [4] it was 0.856; in assay [5], 0.946; in assay [6] it was 0.863. Further, the IC50 in assay [1] was above 20 µM; in assay [2], above 2 µM; in assay [3], above 0.256 µM; in assay [4], above 16 µM; in assay [5], above 2 µM; in assay [6] it was above 10 µM.

SH-4 (melanoma, adherent): the AUC in assay [1] was determined as 0.807; in assay [2], 0.969; in assay [3], 0.718; in assay [4] it was 0.89; in assay [5], 0.957; in assay [6], 0.666. Besides, the IC50 was 18.2 µM in assay [1]; above 2 µM in assay [2]; 0.0952 µM in assay [3]; above 16 µM in assay [4]; above 2 µM in assay [5]; 2.35 µM in assay [6].

Take NB5 (neuroblastoma, adherent): the AUC was determined as 0.876 in assay [1]; 0.934 in assay [2]; 0.649 in assay [3]; 0.979 in assay [4]; 0.986 in assay [5]; 0.798 in assay [6]. Also, the IC50 in assay [1] is above 20 µM; in assay [2], above 2 µM; in assay [3], 0.0416 µM; in assay [4], above 16 µM; in assay [5] it was above 2 µM; in assay [6], 4.85 µM.

Regarding MC116 (B-cell lymphoma, suspension), the AUC in assay [1] was determined as 0.508; in assay [2] it was 0.999; in assay [3] it was 0.657; in assay [4] it was 0.767; in assay [5], 0.999; in assay [6] it was 0.878. The IC50 was 1.3 µM in assay [1]; above 2 µM in assay [2]; 0.0381 µM in assay [3]; 4.41 µM in assay [4]; above 2 µM in assay [5]; 5.18 µM in assay [6].

Take “EoL-1-cell (haematopoietic neoplasm, suspension)”: the AUC in assay [1] came to 0.774; in assay [2], 0.337; in assay [3], 0.603; in assay [4], 0.817; in assay [5], 0.927; in assay [6], 0.764. For the same cell line, the IC50 in assay [1] was 6.91 µM; in assay [2] it was 0.0469 µM; in assay [3], 0.0296 µM; in assay [4], 7.66 µM; in assay [5], above 2 µM; in assay [6] it was 3.23 µM.
